Results on 95 compounds are retold here after PMC6919601, “Identification of Plasmodium dipeptidyl aminopeptidase allosteric inhibitors by high throughput screening” (PLoS ONE, 2019).

Several values for one entry are separate records, joined by “and”; a condition that tells them apart may be missing. Identical values can stand only once. Screen size: about 110,000 compounds; about 230 (0.21%) showed an effect of 50% or more. The list shows a part of the results.
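Further: 30 min substrate incubation versus DMSO and 10 µM JCP410 controls.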

The target in the experiment is DPAP1 (Plasmodium falciparum, UniProt Q8IIJ9). Nature of the experiment: primary screen, percent inhibition; read by cleavage of a fluorogenic dipeptide substrate; higher = more effect of the substance. Details: species or system P. falciparum D10 trophozoite lysates; single well.
DPAP1, sequence (Q8IIJ9 whole entry, looked up): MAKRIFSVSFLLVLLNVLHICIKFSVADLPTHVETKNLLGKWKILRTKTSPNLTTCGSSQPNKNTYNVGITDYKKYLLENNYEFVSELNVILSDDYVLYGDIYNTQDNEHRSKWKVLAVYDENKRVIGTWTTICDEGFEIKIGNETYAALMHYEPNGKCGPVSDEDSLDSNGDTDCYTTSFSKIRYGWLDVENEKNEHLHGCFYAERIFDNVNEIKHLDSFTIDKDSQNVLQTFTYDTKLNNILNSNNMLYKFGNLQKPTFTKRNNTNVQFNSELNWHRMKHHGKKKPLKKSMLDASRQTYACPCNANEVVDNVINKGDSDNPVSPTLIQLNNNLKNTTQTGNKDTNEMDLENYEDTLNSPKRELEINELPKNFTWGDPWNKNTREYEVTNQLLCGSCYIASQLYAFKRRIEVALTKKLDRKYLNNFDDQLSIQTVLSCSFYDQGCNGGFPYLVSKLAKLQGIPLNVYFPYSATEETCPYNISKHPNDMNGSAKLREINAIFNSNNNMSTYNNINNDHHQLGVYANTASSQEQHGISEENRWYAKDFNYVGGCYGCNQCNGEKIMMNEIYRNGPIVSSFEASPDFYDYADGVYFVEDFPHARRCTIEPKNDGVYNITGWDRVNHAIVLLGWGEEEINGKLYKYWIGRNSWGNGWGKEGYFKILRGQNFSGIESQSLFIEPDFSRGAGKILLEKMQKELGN
On to `CC(C)C1=NN2C(=N)/C(=C/c3ccc(Cl)cc3)C(=O)N=C2S1`, for which the “% Inhibition @ 10 uM” value was found to be 0.685%. Regarding `CC1CNC2=C(C(=O)Nc3ccccc3)C(=O)CC(c3ccccc3)N21` (centres unmarked), the “% Inhibition @ 10 uM” value was found to be 3.05%. The value for `CCOc1ccccc1CNC(=O)c1nc(-c2cccc(F)c2)n2c1CCCCC2` was -1.31%. As for `COC(=O)c1c(C)sc(C(c2ccc(OC)cc2)c2sc(C)c(C(=O)OC)c2O)c1O`, the figure is -1.24%. The value for `COc1cc2ccccc2cc1C(=O)Nc1ccc(NC(=O)c2cccs2)cc1` was -11%. For the compound `CCCSc1ncc(Cl)c(C(=O)NCCc2ccc(OC)c(OC)c2)n1`, the “% Inhibition @ 10 uM” value was 4.47%. The value for `Cc1ccc(S(=O)(=O)N(CC(=O)NC(C)(C)C)C2CCCCC2)cc1` was 0.924%. For `c1cncc(-c2noc(C34CC5CC(CC(C5)C3)C4)n2)c1`, the “% Inhibition @ 10 uM” value is recorded as -6.7%. As for `CCCOc1ccc(CN(C(=O)c2nc(SC)ncc2Cl)C2CCS(=O)(=O)C2)cc1` (centres unmarked), the figure is -4.64%. The value for `Cc1ccc(S(=O)(=O)n2c(SCC(=O)NCc3ccccc3)nc3ccccc32)cc1` was 6.58%. As for `COc1ccccc1CNC(=O)CN(C)S(=O)(=O)c1ccc2nc(C)sc2c1`, the figure is -0.522%; as for `COC(=O)c1cc2occc2n1Cc1nc(-c2ccc(OC)cc2)oc1C`, -2.18%.

On to `COc1ccc(NC(=O)CN2C(=O)C3C4CCC(C4)C3C2=O)cc1` (centres unmarked), for which the “% Inhibition @ 10 uM” value was determined as 4.84%. As for `CCCOc1ccc(C2C(C(=O)OCC)=CN(Cc3ccc(F)cc3)C=C2C(=O)OCC)cc1`, the figure is -3.23%. As for `CC(C)CCNC(=O)c1ccc(CS(=O)(=O)Cc2ccc(Cl)cc2)o1`, the figure is -4.97%; as for `CC(C)C[C@H](NC(=O)c1ccc(-c2csc(N=C(N)N)n2)cc1)C(=O)N[C@@H](Cc1c[nH]c2ccccc12)C(=O)O`, 6.03%; as for `O=C(Cn1c(-c2cccs2)cc2ccccc21)NCC1CCCO1` (centres unmarked), -5.15%. As to `CC(C)(CNC(=O)c1oc(=O)c2ccccc2c1-c1ccccc1)N1CCCCC1`, the “% Inhibition @ 10 uM” value is reported as 2.34%. Take `COC(=O)C1=CN(Cc2ccc(OC)cc2)C=C(C(=O)OC)C1c1ccc(O)cc1`: the “% Inhibition @ 10 uM” value is recorded as -6.93%. As for `CCOc1ccc2nc(N3CCCC(C(=O)NC(C)c4ccc5c(c4)OCCO5)C3)sc2c1` (centres unmarked), the figure is 4.95%; as for `CCOC(=O)c1c(C)[nH]c(C)c1S(=O)(=O)N(C)CC(=O)Nc1nc2ccc(C)cc2s1`, 6.92%; as for `O=C(O)CSc1nnc(-c2cccs2)n1-c1cccc(C(F)(F)F)c1`, 1.15%. The value for `COC(=O)c1c(NC(=O)c2ccccc2C)sc2c1CCC(C)C2` (centres unmarked) was 7.63%; that for `CS(=O)(=O)N(CCc1ccccc1)CC(=O)Nc1ccc(Br)cc1F` was 2.13%; that for `CCn1cc(/C=C(\NC(=O)c2ccccc2OC)C(=O)NCCO)c2ccccc21` was 3.24%. Regarding `Cc1nc2ccn(Cc3cccs3)c(=O)c2cc1C(=O)N1CCN(C)CC1`, the “% Inhibition @ 10 uM” value is listed as -2.29%. The value for `Oc1cc(Cc2ccccc2)nn1-c1nc2ccccc2s1` was 3.18%; that for `CCOC(=O)N1CCN(C(=O)CSCC(=O)Nc2nc(-c3ccc(C)cc3C)cs2)CC1` was 5.23%. The value for `Cc1nn(CC(=O)NCCN2CCCCCC2)c(=O)c2cccn12` was 3.39%.

In the case of `COc1ccccc1C1C(C#N)=C(N)Oc2cc3ccccc3cc21` (centres unmarked), the “% Inhibition @ 10 uM” value is on record as -1.06%. With `CCOc1cc(C2C3=C(CC(C)(C)CC3=O)N(C)C3=C2C(=O)CC(C)(C)C3)ccc1OC`, the “% Inhibition @ 10 uM” value is reported as -7.9%. The value for `COc1ccccc1[S+](O)c1c(C)cc(C)cc1C` (centres unmarked) was 4.26%; that for `Cc1ccc(C(C)C)c(OCC(=O)Nc2cccnc2Cl)c1` was -3.34%. Regarding `CC12CCC(C(=O)N3CCN(C(=O)C45CCC(C)(C(=O)O4)C5(C)C)CC3)(OC1=O)C2(C)C`, the “% Inhibition @ 10 uM” value is listed as -4.19%.

As to `NC(=O)c1cnn2c(C(F)(F)F)cc(-c3ccccc3)nc12`, the “% Inhibition @ 10 uM” value is 1.34%.

As for `CCOc1ccc(CCNC(=O)c2nccnc2C(=O)O)cc1OCC`, the “% Inhibition @ 10 uM” value was 0.776%. The value for `COc1ccc(S(=O)(=O)N(C(C)=O)c2ccc3oc(C)c(C(C)=O)c3c2)cc1` was -20.8%; that for `CC(C)Oc1ccc(CNC(=O)Cn2c(=O)c3cccn3c3cccnc32)cc1` was 3.38%; that for `CCc1ccc(CNC(=O)C2CCCN(c3ncnc4onc(-c5ccc(F)cc5)c34)C2)cc1` (centres unmarked) was 7.92%. The value for `CCCNS(=O)(=O)c1cnccc1N1CCN(C(C)C)CC1` was -1.88%; that for `CCCCCCN1C(=O)C(O)=C(C(=O)c2ccc(OC)cc2)C1c1ccccc1F` (centres unmarked) was 1.58%; that for `COc1cc(OC)cc(-c2nc3nc(C)c(CCC(=O)NCCN4CCOCC4)c(C)n3n2)c1` was -0.465%. With `COC(=O)C1=CN(Cc2ccc(Cl)cc2)C=C(C(=O)OC)C1c1ccc(OC)c(O)c1`, the “% Inhibition @ 10 uM” value is given as 0.219%. As for `Cc1ccccc1C(=O)Nc1c(-c2ccccc2)nc2ccccn12`, the figure is -2.01%.

`CCC1CCCCN1C(=O)C1CCN(S(=O)(=O)c2cccc3nsnc23)CC1` (centres unmarked): the “% Inhibition @ 10 uM” value is reported as -1.54%. As for `Cc1oc(-c2ccccc2F)nc1CS(=O)CC(=O)NCc1ccc2c(c1)OCO2` (centres unmarked), the figure is 0.689%; as for `CCN(Cc1ccccc1)S(=O)(=O)c1ccc(NC(C)=O)cc1`, 6.65%; as for `Cc1ccc(C(=O)CC(c2ccccc2)C(C#N)C#N)cc1` (centres unmarked), 1.13%. On to `COC(=O)C(NC(=O)c1ccccc1)=C1C=C(c2ccccc2)OC(c2ccccc2)=C1`, for which the “% Inhibition @ 10 uM” value is -0.615%. `Cc1ccc(/C(=C\n2ccnc2)c2ccccc2)cc1`: the “% Inhibition @ 10 uM” value is -6.92%.

In the case of `O=C(c1cccc(Cl)c1)N1CCN(c2ccc(F)cc2)CC1`, the “% Inhibition @ 10 uM” value is on record as -7.5%. As for `O=C(NCCc1ccccc1)C1CCN(C(=O)c2sccc2-n2cccc2)CC1`, the figure is -1.6%; as for `Cc1cc(C)c2c(n1)OC(N1CCOCC1)(C(F)(F)F)CC2=O` (centres unmarked), -0.403%; as for `O=c1ccn(Cc2ccccc2)c(=O)[nH]1`, -3.14%.

Turning to `O=C(NCCCCNC(=O)C1CCCCC1)C1CCCCC1`, the “% Inhibition @ 10 uM” value was 3.72%. In the case of `CCOC(=O)c1c(-c2ccc(Br)cc2)csc1N`, the “% Inhibition @ 10 uM” value is 13.1%. On to `COc1ccccc1NC(=O)c1c(O)c2ccccc2n(C)c1=O`, for which the “% Inhibition @ 10 uM” value worked out at 1.83%.

In the case of `CCN1CCC(N(C)CCN(C)C)CC1`, the “% Inhibition @ 10 uM” value turned out to be 3.48%. The value for `COc1ccc(-n2nnnc2C2CCN(S(=O)(=O)c3cc(F)ccc3C)CC2)cc1` was 0.00706%; that for `COC(=O)C1=C(C)N(Cc2ccc(OC)cc2)C(=O)/C1=C\c1ccc(C(=O)OC)cc1` was -1.26%. The value for `O=C(c1cc2nc(-c3ccc(Br)cc3)cc(C(F)(F)F)n2n1)N1CCOCC1` was 3.49%. The value for `CC(NC(=O)CCN1CCOCC1)C1COc2ccccc2O1` (centres unmarked) was -3.14%; that for `O=C(Cn1ccs/c1=N/C(=O)C(F)(F)F)c1ccccc1` was -5.41%; that for `COc1ccc(S(=O)(=O)NCCc2cc3c(C)ccc(C)c3nc2O)cc1` was 0.205%. Regarding `c1cncc(CNc2nc(N3CCOCC3)nc(N3CCOCC3)n2)c1`, the “% Inhibition @ 10 uM” value was determined as 3.39%.

Take `Cc1ccc2oc(C(=O)Nc3sc4c(c3C(=O)NCC3CCCO3)CCCC4)cc(=O)c2c1` (centres unmarked): the “% Inhibition @ 10 uM” value is recorded as 6.56%.

Turning to `CN1CCN(C(=O)c2c(NC(=O)c3ccco3)sc3c2CCC(C(C)(C)C)C3)CC1` (centres unmarked), the “% Inhibition @ 10 uM” value turned out to be 3.29%. As for `CCC(C(=O)NCCCN1CC(C)CC(C)C1)n1nc(C)c2sc3ccccc3c2c1=O` (centres unmarked), the figure is 2.95%; as for `COc1ccc2oc(=O)cc(CN3CCN(C(=O)c4ccc(Cl)cc4)CC3)c2c1`, -4.9%. As for `CCCSCCCNC(=O)c1oc2c(c1C)-c1n[nH]cc1CC2`, the figure is 2.07%; as for `COc1ccc(-c2c(C)nn3c(NC4CC4)cc(C)nc23)cc1OC`, -9.55%. For `CC(CCc1ccccc1)NC(=O)C1CCC(CNS(=O)(=O)c2ccccc2)CC1` (centres unmarked), the “% Inhibition @ 10 uM” value was 3.93%. As for `C=CC[C@@H]1Cc2ccccc2[C@@H](C)N1`, the figure is 4.08%.

Consider `C=CCc1cc(/C=C2/C(=N)N3OC(C)=CC3=NC2=O)cc(OC)c1OCc1ccccc1F`, for which the “% Inhibition @ 10 uM” value is listed as -3.46%. As for `CC(C)Nc1nc(NC(C)C)nc(N(C)C#N)n1`, the figure is 0.587%; as for `Cc1cc(Oc2ccccc2)nc(-c2ccccc2)n1`, 1.91%; as for `CC(C)C[C@H](NC(=O)c1ccc(Cl)c(-c2ccccc2)c1)C(=O)NCC#N`, 15.9%. The value for `Cc1c(C(=O)N2CCC3(CC2)OCCO3)oc2ccc(S(=O)(=O)N3CCCCCC3)cc12` was 0.287%; that for `CCN(CC)C(=O)C1CCCN(Cc2ccc(C)o2)C1` (centres unmarked) was 0.273%; that for `N#CCNC(=O)C(CC1CCCCC1)C(=O)NCc1ccccc1` (centres unmarked) was -3.49%. With `Cc1ccc(S(=O)(=O)Nc2ccc(O)c(C(=O)O)c2)c(C)c1`, the “% Inhibition @ 10 uM” value is on record as -6.65%. The value for `O=C(Nc1cccc2cccnc12)c1ccccc1Br` was -4.43%; that for `O=C(c1cn(-c2ccccc2)nc1-c1ccccc1)N1CCN(Cc2ccccc2)CC1` was 0.716%. As for `O=c1c(Cl)c(NCCC2=CCCCC2)cnn1C12CC3CC(CC(C3)C1)C2`, the figure is 0.0579%.

Consider `Cc1ccc(NC(=O)c2ccccc2C)cc1Cl`, for which the “% Inhibition @ 10 uM” value is listed as 0.526%. The value for `CC(C)(C)c1ccc(S(N)(=O)=O)cc1` was -3.38%; that for `CCOc1ccc(C2C3=C(O)CCCC3=NC(C)=C2C(=O)Nc2ccccc2OC)cc1OC` (centres unmarked) was 0.726%; that for `CCc1ccc2c(c1)C(O)(CC(=O)c1ccc(Br)cc1)C(=O)N2` (centres unmarked) was 8.36%. On to `COc1ccc(C2CC(C(F)(F)F)n3ncc(C(=O)N(C)Cc4cnn(C)c4C)c3N2)cc1OC` (centres unmarked), for which the “% Inhibition @ 10 uM” value came out at 11.2%. As for `CCOC(=O)c1ccc(-n2c(CCC(=O)O)ccc2-c2ccc(C)cc2)cc1O`, the figure is 2.32%. As for `Nc1ccc2nc3c(=O)[nH]c(=O)[nH]c3nc2c1`, the figure is 0.962% and -0.807%; as for `Cc1ccc(CNC(=O)C2CCN(c3nnc(C)c4c(C)n(-c5ccccc5)nc34)CC2)cc1`, -0.0309%. As to `Cc1cc(OCC(=O)N2CCC(C)CC2)cc(C)c1Br`, the “% Inhibition @ 10 uM” value is -3.29%. As for `COCCCn1c(=O)c(C#N)cc2c(=O)n3cc(C)ccc3nc21`, the figure is 0.913%. As for `COc1ccc(CNCCC2(O)CCOC(C)(C)C2)cc1` (centres unmarked), the figure is 3.96%.
